According to PubChem BioAssay AID686979 (National Center for Advancing Translational Sciences (NCATS), 2013):
Screen size: about 420,000 compounds; about 50,000 (12%) were called active. This list was built around the results that the source calls inconclusive (neither active nor inactive); the mix of calls is not that of the screen. Calls come from the whole dose curve; as a rule, active = well fitted inhibition curve with a large enough effect; inconclusive = small, poorly fitted or top-dose-only effect; inactive = flat fitted curve, though single readings scatter. Potencies of inconclusive entries are left out as doubtful fits.

Test: qHTS for Inhibitors of human tyrosyl-DNA phosphodiesterase 1 (TDP1): qHTS in cells in presence of CPT; note: nearly all actives have a fitted effect of over 55% in size
Details: chicken DT40 Tdp1-/-;hTDP1 cells + 20 nM CPT, ATP luminescence, 48 h; activity change, negative = growth inhibition: at 46.2 µM (top of the series)
Outline: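 Chicken DT40 Tdp1-/- cells complemented with human TDP1, 400 cells/well, exposed to compounds plus 20 nM camptothecin for at least 48 h at 37 C; viability read as ATP content by CellTiter-Glo luminescence.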
% is set by controls: 0 for no effect and ±100 for the full control effect; potency is the fitted concentration of half-maximal effect; tags give direction and shape of the fitted curve.

Question: Which activity change, negative = growth inhibition does the source give for `COc1ccc(Nc2nc3cc(C)ccc3cc2C#N)cc1` here?
Answer: inconclusive: -36.5% [inhibitor]

Question: With `Cc1c(C)n(Cc2ccccc2)c2ccc(C(=O)N3CCN(c4ccccc4)CC3)cc12` as the compound, how does the Potency read?
Answer: inconclusive [inhibitor, single point]

Question: Which Potency does the source give for `OCCc1c[nH]c2cc(F)ccc12` here?
Answer: inactive

Question: With `NC(=O)C1CCN(c2ncc(C(F)(F)F)cc2Cl)CC1` as the compound, how does the Potency read?
Answer: inactive

Question: With `CC(C)Oc1ccc(C(=O)N(Cc2ccc(N(C)C)cc2)Cc2ccco2)cc1` as the compound, how does the Potency read?
Answer: inconclusive [inhibitor, single point]

Question: With `CC(=O)NC1=NN(C(C)=O)C(c2ccc(C(C)C)cc2)S1` (stereo unspecified) as the compound, how does the Potency read?
Answer: inconclusive [inhibitor, full curve, poor fit]

Question: For `CCCN1C(=O)c2[nH]nc(-c3cc(Cl)c(C)cc3O)c2C1c1ccc(O)c(OC)c1` (stereo unspecified), which Potency is on record?
Answer: inconclusive [inhibitor, single point]

Question: With `COc1ccc(NC(=O)c2ccc3nc(C)c(N(C)C(=O)CCc4ccccc4)n3c2)cc1OC` as the compound, how does the Potency read?
Answer: inconclusive [inhibitor, single point]

Question: Which Potency does the source give for `Cc1ccc(C(=O)NCCNC(=O)COc2ccccc2Cl)cn1` here?
Answer: inactive

Question: For `O=C(Nc1ccnn1C1CCN(C2CCCCC2)CC1)c1ccccc1`, which Potency is on record?
Answer: inconclusive [inhibitor, full curve, poor fit]

Question: Which Potency does the source give for `C[C@@H]1CCCCO[C@@H](CN(C)C(=O)Cc2ccccc2)[C@@H](C)CN([C@H](C)CO)C(=O)c2cc(NC(=O)C3CCCCC3)ccc2O1` here?
Answer: inconclusive [inhibitor, single point]

Question: Which Potency does the source give for `O=C(c1cc2sccc2n1Cc1ccc(F)cc1)N1CCCc2ccccc21` here?
Answer: inconclusive [inhibitor, single point]

Question: Which Potency does the source give for `COc1ccc(N2CC(C(=O)N[C@H](C(=O)NC(C)c3ccccc3)C(C)C)CC2=O)cc1` (stereo partly specified) here?
Answer: inactive

Question: Which Potency does the source give for `Cc1ccc(C(=O)OCC(=O)Nc2ccc3c(c2)OCO3)cc1S(=O)(=O)N1CCOCC1` here?
Answer: inactive

Question: Which Potency does the source give for `COc1ccc(C)cc1S(=O)(=O)NC(C)C(=O)Nc1ccc2c(c1)OCO2` (stereo unspecified) here?
Answer: inactive

Question: With `O=c1c(-c2cccs2)nc2cnc(N3CCOCC3)nc2n1Cc1cccs1` as the compound, how does the Potency read?
Answer: inactive

Question: For `COC(=O)[C@]1(C)N[C@H](c2ccc(-c3ccc(Cl)c(Cl)c3)c(OC)c2)[C@@H]2C(=O)N(C)C(=O)[C@@H]21`, which Potency is on record?
Answer: active: 9.2 µM

Question: With `COc1cc2nc(C)sc2cc1SC` as the compound, how does the Potency read?
Answer: inconclusive [inhibitor, single point]

Question: Which Potency does the source give for `Cc1ccc(NC(=O)C2(C)CCN2Cc2ccc(OC(C)C)cc2)cc1` (stereo unspecified) here?
Answer: inconclusive [inhibitor, single point]

Question: With `CCOC(=O)c1ccc(-n2ccnc2)c(NC(=O)c2ccc(C(C)(C)C)cc2)c1` as the compound, how does the Potency read?
Answer: inactive

Question: For `CC1CCN(C(=O)c2ccc3c(c2)C(=O)c2ccccc2-3)CC1`, which Potency is on record?
Answer: inconclusive [inhibitor, single point]

Question: Which Potency does the source give for `CC(C)[C@H](NC(=O)c1ccc(C(C)(C)C)cc1)C(=O)Nc1nnc(C2CC2)s1` here?
Answer: active: 23.1 µM

Question: Which Potency does the source give for `O=C(CCS(=O)(=O)c1ccc(Br)s1)Nc1cc(C(F)(F)F)cc(C(F)(F)F)c1` here?
Answer: active: 14.6 µM

Question: With `O=C(CCc1ccccc1Cl)Nc1cc(S(=O)(=O)N2CCOCC2)ccc1N1CCCC1` as the compound, how does the Potency read?
Answer: active: 14.6 µM

Question: With `CC1CC(C)(C)N(C(=O)CSc2ccc(-c3ccc(F)cc3)nn2)c2ccccc21` (stereo unspecified) as the compound, how does the Potency read?
Answer: inconclusive [inhibitor, single point]

Question: For `Clc1ccc(CSc2nnc(CNc3cccc(Cl)c3)o2)cc1`, which Potency is on record?
Answer: inconclusive [inhibitor, partial curve]

Question: For `CN(CC(=O)Nc1cccc(F)c1)C(=O)c1ccc(COc2ccccc2)o1`, which Potency is on record?
Answer: inconclusive [inhibitor, single point]

Question: Which Potency does the source give for `CCC(OC(=O)C(CC(C)C)NC(=O)c1ccccc1)C(=O)Nc1nnc(C)s1` (stereo unspecified) here?
Answer: inconclusive [inhibitor, single point]

Question: Which Potency does the source give for `CCN(C(=O)Cn1c(=O)oc2cc(S(=O)(=O)N3CCCCCC3)ccc21)c1cccc(C)c1` here?
Answer: inconclusive [inhibitor, single point]

Question: For `COCCn1c(=O)c(CCc2ccccc2)nc2cnc(OC)nc21`, which Potency is on record?
Answer: inactive

Question: With `CC(=O)NC(c1cccc(F)c1)c1nc(-c2ccc3ccccc3c2)cs1` (stereo unspecified) as the compound, how does the Potency read?
Answer: inconclusive [inhibitor, single point]

Question: With `Cc1cccc(NC(=S)NC(C)CCc2ccccc2)c1` (stereo unspecified) as the compound, how does the Potency read?
Answer: inconclusive [inhibitor, single point]

Question: Which Potency does the source give for `COc1cccc(-c2nc(-c3ccccn3)no2)c1` here?
Answer: inconclusive [inhibitor, single point]

Question: Which Potency does the source give for `O=c1c2ccccc2sc2nc(CCl)nn12` here?
Answer: inconclusive [inhibitor, partial curve]

Question: For `C[C@H](O)[C@@H]1CN2CCc3c([nH]c4ccccc34)[C@@H]2C[C@@H]1N(C)C(=O)c1ccco1`, which Potency is on record?
Answer: inconclusive [inhibitor, single point]

Question: With `CC(Sc1nnnn1C1CCCCC1)C(=O)O` (stereo unspecified) as the compound, how does the Potency read?
Answer: inconclusive [inhibitor, single point]

Question: With `COc1ccccc1C=C1SC(=S)NC1=O` as the compound, how does the Potency read?
Answer: inconclusive [inhibitor, single point]

Question: For `Cc1ccc(NC(=O)CSCC(=O)N(C)Cc2c(F)cccc2Cl)cc1`, which Potency is on record?
Answer: active: 18.4 µM

Question: For `COc1ccccc1NS(=O)(=O)c1cc(NC(=O)c2sc3cc(Cl)ccc3c2Cl)ccc1C`, which Potency is on record?
Answer: inconclusive [inhibitor, single point]

Question: Which Potency does the source give for `CCCCCCCC[n+]1cccc(C(=O)N(CC)CC)c1` here?
Answer: inactive

Question: Which Potency does the source give for `COc1ccc(-c2nc(CSCC(=O)N3CCN(c4ccccc4F)CC3)c(C)o2)cc1` here?
Answer: active: 16.4 µM

Question: For `CC(=O)N1CCN(c2ccc(Nc3nc(C)nc4c3oc3ccccc34)cc2)CC1`, which Potency is on record?
Answer: inconclusive [inhibitor, single point]

Question: Which Potency does the source give for `CCN(CC(=O)NCc1cccs1)C(=O)c1cccc(S(=O)(=O)N2CCc3ccccc32)c1` here?
Answer: inconclusive [inhibitor, single point]

Question: For `O=C(Nc1ccc(N2CCOCC2)cc1)c1ccc([N+](=O)[O-])o1`, which Potency is on record?
Answer: active: 5.17 µM

Question: With `COc1ccc(S(=O)(=O)NCCSC(C)(C)C)c(Cl)c1Cl` as the compound, how does the Potency read?
Answer: inconclusive [inhibitor, partial curve]

Question: With `COc1ccc(Nc2ncccc2C(=O)NCc2ccccc2)cc1` as the compound, how does the Potency read?
Answer: inactive

Question: Which Potency does the source give for `COc1ccc(CNc2nc(NCc3ccc(OC)c(OC)c3)n(C(=O)c3cccs3)n2)cc1OC` here?
Answer: active: 16.4 µM

Question: For `CCCCN(CC)c1nc(N)c2c(N)nc(OCC)cc2c1C#N`, which Potency is on record?
Answer: inconclusive [inhibitor, single point]

Question: With `O=C1N[C@@H](c2ccccc2)COC(=O)[C@@H](Cc2ccc(F)cc2)C/C=C\C[C@H]1CC(=O)N(CCO)Cc1ccccc1` as the compound, how does the Potency read?
Answer: active: 14.6 µM

Question: Which Potency does the source give for `Cc1cc(S(=O)(=O)Nc2c(C)nn(C)c2C)c(Cl)cc1Cl` here?
Answer: inactive

Question: With `COc1ccccc1C(=O)Nc1nnc(SCC(=O)NC2CCCC2)s1` as the compound, how does the Potency read?
Answer: inconclusive [inhibitor, single point]

Question: Which Potency does the source give for `C=CC[C@H](CC(=O)NCCO)C(=O)NC[C@@H](OC(=O)[C@@H](CC=C)CC(=O)OC(C)(C)C)c1ccccc1` here?
Answer: inconclusive [inhibitor, single point]

Question: For `COc1ccc2[nH]c(=O)c(CNc3ccccc3C)cc2c1`, which Potency is on record?
Answer: active: 9.2 µM

Question: Which Potency does the source give for `CCOc1ccccc1NC(=O)CCS(=O)(=O)c1ccc(Br)cc1` here?
Answer: inactive

Question: Which activity change, negative = growth inhibition does the source give for `CCCC1(c2ccccc2)NC(=O)N(CC(=O)N2CC(=O)Nc3ccccc32)C1=O` (stereo unspecified) here?
Answer: inconclusive: -7.94% [inhibitor]

Question: Which Potency does the source give for `O=c1[nH]cnc2c1nc(NCc1ccccc1)n2C1O[C@@H](CO)[C@H](O)[C@@H]1O` (stereo partly specified) here?
Answer: inactive

Question: Which Potency does the source give for `C/C(=N\NC(=O)CN(c1ccccc1Br)S(C)(=O)=O)c1cccs1` here?
Answer: inconclusive [inhibitor, single point]

Question: With `CCOc1cc(C(=O)N/N=C/c2ccoc2)cc(OCC)c1OCC` as the compound, how does the Potency read?
Answer: inactive

Question: Which Potency does the source give for `CCC(C)c1ccccc1N=Cc1ccc2c(c1)OCO2` (stereo unspecified) here?
Answer: inconclusive [inhibitor, single point]

Question: Which Potency does the source give for `O=C(Nc1nc2ccccc2n1CCOc1ccccc1)c1ccco1` here?
Answer: active: 14.6 µM

Question: With `CCCCC(=O)N/C(N)=N/c1nc2ccccc2o1` as the compound, how does the Potency read?
Answer: inconclusive [inhibitor, single point]

Question: With `C/C(=N\NC(=O)Cc1ccc(Cl)cc1)c1ccccn1` as the compound, how does the Potency read?
Answer: active: 1.46 µM

Question: Which Potency does the source give for `CCN(CC)CCCN=Cc1c(O)n(-c2ccccc2C)c(=O)c2ccccc12` here?
Answer: inconclusive [inhibitor, partial curve, poor fit]

Question: For `CCOc1ccccc1NC(=O)CSc1ncc2c(n1)-c1ccccc1N(CC)S2(=O)=O`, which Potency is on record?
Answer: active: 23.1 µM

Question: Which Potency does the source give for `COc1ccc([C@H]2N[C@]3(CCCN(Cc4cccn4C)C3=O)[C@H]3C(=O)N(Cc4ccccc4)C(=O)[C@@H]23)cc1` here?
Answer: inactive

Question: Which Potency does the source give for `CCOc1ccc(NC(=O)c2sc(-n3nc(C)c(CCC(C)C)c3C)nc2C)cc1` here?
Answer: inconclusive [inhibitor, single point]

Question: For `Cc1nc(N)nc(SCc2ccc([N+](=O)[O-])cc2)c1N`, which Potency is on record?
Answer: inconclusive [inhibitor, partial curve]

Question: With `COc1ccc(N(Cc2cc3ccccc3[nH]c2=O)S(=O)(=O)c2ccc(C)cc2)cc1` as the compound, how does the Potency read?
Answer: inconclusive [inhibitor, partial curve]

Question: With `C=CCn1c(-c2ccccc2)nc2nc3ccccc3nc21` as the compound, how does the Potency read?
Answer: active: 18.4 µM

Question: For `S=C(NCCc1ccccn1)Nc1ccc(Cl)cc1Cl`, which Potency is on record?
Answer: inactive

Question: For `Cc1cc(NC(=O)C(C)SCC(=O)N(C)CC(=O)Nc2ccccc2C(F)(F)F)no1` (stereo unspecified), which Potency is on record?
Answer: inactive
